# The supplement of paper PMC8728848
# Some of the results follow.
# Legend:
# Experiment in all cases: glycan array binding signal (z-score within array); higher = stronger binding
# Details in all cases: glycan notation: IUPAC condensed, linker removed
# [1] = molecular target: Gal3S(b1-4)GlcNAc6S
# Procedure, shortened: (§1)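 Glycan array binding is given as a within-array Z-score, which can be read as non-binding when negative. The arrays, 3228 of them, came from the Consortium for Functional Glycomics database and were retained only where the protein sequence was available. Z-scores were averaged across arrays of the same protein sequence at different concentrations or buffers and across linkers.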
# [2] = molecular target: Gal3S(b1-4)[Fuc(a1-3)]Glc
# Procedure, shortened: as §1
# [3] = molecular target: Gal3S4S(b1-4)GlcNAc
# Procedure, shortened: as §1
# [4] = molecular target: Gal3S6S(b1-4)GlcNAc
# Procedure, shortened: as §1
# [5] = molecular target: Gal3S6S(b1-4)GlcNAc6S
# Procedure, shortened: as §1
# [6] = molecular target: Gal4S(b1-4)GlcNAc
# Procedure, shortened: as §1
# [7] = molecular target: Gal4S6S(b1-4)GlcNAc
# Procedure, shortened: as §1
# [8] = molecular target: Gal6S(b1-4)Glc
# Procedure, shortened: as §1
# [9] = molecular target: Gal6S(b1-4)Glc6S
# Procedure, shortened: as §1
# [10] = molecular target: Gal6S(b1-4)GlcNAc
# Procedure, shortened: as §1
# [11] = molecular target: Gal6S(b1-4)GlcNAc6S
# Procedure, shortened: as §1
# [12] = molecular target: GalNAc(a1-3)Gal
# Procedure, shortened: as §1
# [13] = molecular target: GalNAc(a1-3)GalNAc
# Procedure, shortened: as §1
# [14] = molecular target: GalNAc(b1-3)Gal
# Procedure, shortened: as §1
# [15] = molecular target: GalNAc(b1-3)Gal(a1-4)Gal(b1-4)GlcNAc
# Procedure, shortened: as §1
# [16] = molecular target: GalNAc(b1-3)GalNAc
# Procedure, shortened: as §1
# [17] = molecular target: GalNAc(b1-4)GlcNAc
# Procedure, shortened: as §1
# [18] = molecular target: Glc(a1-4)Glc
# Procedure, shortened: as §1
# [19] = molecular target: Glc(a1-6)Glc(a1-6)Glc
# Procedure, shortened: as §1
# [20] = molecular target: Glc(b1-4)Glc
# Procedure, shortened: as §1
# [21] = molecular target: Glc(b1-6)Glc
# Procedure, shortened: as §1
# [22] = molecular target: GlcA(b1-3)Gal
# Procedure, shortened: as §1
# [23] = molecular target: GlcA(b1-3)GlcNAc
# Procedure, shortened: as §1
# [24] = molecular target: GlcA(b1-6)Gal
# Procedure, shortened: as §1
# [25] = molecular target: GlcNAc(a1-3)Gal(b1-4)GlcNAc
# Procedure, shortened: as §1
# [26] = molecular target: GlcNAc(a1-6)Gal(b1-4)GlcNAc
# Procedure, shortened: as §1
# [27] = molecular target: GlcNAc(b1-2)Gal(b1-3)GalNAc
# Procedure, shortened: as §1
# [28] = molecular target: GlcNAc(b1-2)Man(a1-3)[GlcNAc(b1-2)Man(a1-6)]Man(b1-4)GlcNAc(b1-4)GlcNAc
# Procedure, shortened: as §1
# [29] = molecular target: GlcNAc(b1-3)Gal
# Procedure, shortened: as §1
# [30] = molecular target: GlcNAc(b1-3)Gal(b1-3)GalNAc
# Procedure, shortened: as §1
# [31] = molecular target: GlcNAc(b1-3)Gal(b1-4)Glc
# Procedure, shortened: as §1
# [32] = molecular target: GlcNAc(b1-3)Gal(b1-4)GlcNAc
# Procedure, shortened: as §1
# [33] = molecular target: GlcNAc(b1-3)Gal(b1-4)GlcNAc(b1-3)Gal(b1-4)GlcNAc
# Procedure, shortened: as §1
# [34] = molecular target: GlcNAc(b1-3)GalNAc
# Procedure, shortened: as §1
# [35] = molecular target: GlcNAc(b1-3)Man
# Procedure, shortened: as §1
# [36] = molecular target: GlcNAc(b1-3)[GlcNAc(b1-4)][GlcNAc(b1-6)]GlcNAc
# Procedure, shortened: as §1
# [37] = molecular target: GlcNAc(b1-3)[GlcNAc(b1-6)]Gal(b1-4)GlcNAc
# Procedure, shortened: as §1
# [38] = molecular target: GlcNAc(b1-3)[GlcNAc(b1-6)]GalNAc
# Procedure, shortened: as §1
# [39] = molecular target: GlcNAc(b1-4)Gal(b1-4)GlcNAc
# Procedure, shortened: as §1
# [40] = molecular target: GlcNAc(b1-4)GlcNAc
# Procedure, shortened: as §1
# [41] = molecular target: GlcNAc(b1-4)GlcNAc(b1-4)GlcNAc
# Procedure, shortened: as §1
# [42] = molecular target: GlcNAc(b1-4)GlcNAc(b1-4)GlcNAc(b1-4)GlcNAc(b1-4)GlcNAc
# Procedure, shortened: as §1
# [43] = molecular target: GlcNAc(b1-4)GlcNAc(b1-4)GlcNAc(b1-4)GlcNAc(b1-4)GlcNAc(b1-4)GlcNAc
# Procedure, shortened: as §1
# [44] = molecular target: GlcNAc(b1-4)[GlcNAc(b1-6)]GalNAc
# Procedure, shortened: as §1
# [45] = molecular target: GlcNAc(b1-6)Gal(b1-4)GlcNAc
# Procedure, shortened: as §1
binder,measurement,setting,value
"L-Selectin (Homo sapiens), P14151 (protein) MIFPWKCQSTQRDLWNIFKLWGWTMLCCDFLAHHGTDCWTYHYSEKPMNWQRARRFCRDNYTDLVAIQNKAEIEYLEKTLPFSRSYYWIGIRKIGGIWTWVGTNKSLTEEAENWGDGEPNNKKNKEDCVEIYIKRNKDAGKWNDDACHKLKAALCYTASCQPWSCSGHGECVEIINNYTCNCDVGYYGPQCQFVIQCEPLEAPELGTMDCTHPLGNFSFSSQCAFSCSEGTNLTGIEETTCGPFGNWSSPEPTCQVIQCEPLSAPDLGIMNCSHPLASFSFTSACTFICSEGTELIGKKKTICESSGIWSNPSPICQKLDKSFSMIKEGDYNPLFIPVAVMVTAFSGLAFIIWLARRLKKGKKSKRSMNDPY",glycan array binding signal (z-score),[1],0.109
same,glycan array binding signal (z-score),[2],0.346
same,glycan array binding signal (z-score),[3],0.537
same,glycan array binding signal (z-score),[4],-0.046
same,glycan array binding signal (z-score),[5],4.59
same,glycan array binding signal (z-score),[6],-0.101
same,glycan array binding signal (z-score),[7],0.095
same,glycan array binding signal (z-score),[8],-0.094
same,glycan array binding signal (z-score),[9],0.742
same,glycan array binding signal (z-score),[10],-0.078
same,glycan array binding signal (z-score),[11],0.501
same,glycan array binding signal (z-score),[12],-0.207
same,glycan array binding signal (z-score),[13],0.179
same,glycan array binding signal (z-score),[14],0.399
same,glycan array binding signal (z-score),[15],-0.345
same,glycan array binding signal (z-score),[16],-0.275
same,glycan array binding signal (z-score),[17],-0.177
same,glycan array binding signal (z-score),[18],-0.182
same,glycan array binding signal (z-score),[19],-0.18
same,glycan array binding signal (z-score),[20],0.823
same,glycan array binding signal (z-score),[21],0.406
same,glycan array binding signal (z-score),[22],0.526
same,glycan array binding signal (z-score),[23],0.069
same,glycan array binding signal (z-score),[24],0.493
same,glycan array binding signal (z-score),[25],0.002
same,glycan array binding signal (z-score),[26],-0.154
same,glycan array binding signal (z-score),[27],-0.298
same,glycan array binding signal (z-score),[28],0.06
same,glycan array binding signal (z-score),[29],0.042
same,glycan array binding signal (z-score),[30],-0.298
same,glycan array binding signal (z-score),[31],-0.122
same,glycan array binding signal (z-score),[32],-0.23
same,glycan array binding signal (z-score),[33],-0.369
same,glycan array binding signal (z-score),[34],-0.4
same,glycan array binding signal (z-score),[35],0.338
same,glycan array binding signal (z-score),[36],-0.302
same,glycan array binding signal (z-score),[37],-0.304
same,glycan array binding signal (z-score),[38],-0.343
same,glycan array binding signal (z-score),[39],0.119
same,glycan array binding signal (z-score),[40],-0.086
same,glycan array binding signal (z-score),[41],-0.247
same,glycan array binding signal (z-score),[42],-0.169
same,glycan array binding signal (z-score),[43],-0.297
same,glycan array binding signal (z-score),[44],-0.375
same,glycan array binding signal (z-score),[45],-0.479
